{
  "source": "the supplement of paper PMC11417369",
  "note": "The other results are listed elsewhere or left out.",
  "data": [
    {"test_system": "PF3D7_0420300 AP2 domain 1 (GST-tagged)", "experiment": "gcPBM binding intensity (ln(normalized median fluorescence intensity)); higher = stronger DNA binding", "summary_of_the_method": "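Plasmodium falciparum DNA-binding domains carrying a GST tag were expressed in E. coli and applied for 1 h, at about 25 μg on average, to an Agilent 4 × 180k array. The array held primer-extended double-stranded 36-bp intergenic genomic probes together with negative controls, and binding took place in 1× PBS with 1% milk, 0.2 mg/ml BSA, 0.5% salmon testes DNA and 0.03% Triton X-100. An Alexa488 anti-GST antibody detected bound protein, and the array was scanned at 488 nm. Binding intensity is taken as the highest Masliner-normalised natural-log median intensity across replicate spots of either probe orientation.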", "values": [
      {"sequence": "TAATTTTTTTTTTTTTTTTTTGTACTTCATTTTTAT [CACACA_negctrl_site1395]", "gcPBM binding intensity (ln)": 9.21},
      {"sequence": "AAAAAAAAAAAAAGTACATGCAATATGGATCTTAAA [TGCATGCA_site367]", "gcPBM binding intensity (ln)": 9.41},
      {"sequence": "CATAGATACATACACGCACACACATATATATATATA [CACACA_site13]", "gcPBM binding intensity (ln)": 9.87},
      {"sequence": "GTATTACCTTATTATTGTACTTTCATGATATATATG [XGTACX_site5382]", "gcPBM binding intensity (ln)": 9.69},
      {"sequence": "TTAATGAATGGACACACACACATATATATATATATT [CACACA_site5294]", "gcPBM binding intensity (ln)": 9.79},
      {"sequence": "TACACAAGAAAATTCACACACACACCCATATATATA [CACACA_site3879]", "gcPBM binding intensity (ln)": 10.1},
      {"sequence": "AACATACATGTATATAGTACATATTACATCTGATAC [XGTACX_site3649]", "gcPBM binding intensity (ln)": 9.34},
      {"sequence": "ATGTAATTATAAGATTAATATACATAATTATATGTA [GTGCAC_negctrl_site458]", "gcPBM binding intensity (ln)": 9.11},
      {"sequence": "AAAAGAAATATTTATACACACACACTAACATATATA [CACACA_site8580]", "gcPBM binding intensity (ln)": 10.1},
      {"sequence": "GTGAAAAAAAACATATGTACTTATACACTAATCTAT [XGTACX_site7600]", "gcPBM binding intensity (ln)": 9.31},
      {"sequence": "TTATCATTTTAATGGTGTACTCAATAAAAACTTTAA [XGTACX_site4595]", "gcPBM binding intensity (ln)": 8.87},
      {"sequence": "TTATATATAATTACATGTACGTAGTATTATTTAAAT [XGTACX_site3418]", "gcPBM binding intensity (ln)": 9.08},
      {"sequence": "TGGTAAAGGAGCAAGATGATAAATCTCCATAACTTT [CACACA_negctrl_site492]", "gcPBM binding intensity (ln)": 9.06},
      {"sequence": "ATGTCTATAATAAGAACACACATATATTTAATTTAA [CACACA_site7394]", "gcPBM binding intensity (ln)": 9.29},
      {"sequence": "CTATATTCGTTTAATAGTACATATATAACTAGACAA [XGTACX_site5770]", "gcPBM binding intensity (ln)": 9.2},
      {"sequence": "TATATATATATGTATACACACATACAAATATGTAAA [CACACA_site9238]", "gcPBM binding intensity (ln)": 9.28},
      {"sequence": "GTTGGTACCTTACTTTTACACACTTTTTTTTTTTTT [CACACA_site8441]", "gcPBM binding intensity (ln)": 9.84},
      {"sequence": "TATATATAAAAAAGCACACATACATACATACATAAT [CACACA_site890]", "gcPBM binding intensity (ln)": 9.71},
      {"sequence": "TTTTCACTTTTAAAAACATGCATACTTTATAAAATA [TGCATGCA_site967]", "gcPBM binding intensity (ln)": 8.93},
      {"sequence": "TACACAAGCGGACACACACACATATATATATATATA [CACACA_site4832]", "gcPBM binding intensity (ln)": 9.81},
      {"sequence": "AACATTCTAAAACACACACACACATATATATATATA [CACACA_site1052]", "gcPBM binding intensity (ln)": 10},
      {"sequence": "AAAAAAAAAAAACACACACACACATAAATATATATA [CACACA_site149]", "gcPBM binding intensity (ln)": 10.2},
      {"sequence": "TGTAAATTTGGCATCACACATAAATAAACATATAAA [CACACA_site4497]", "gcPBM binding intensity (ln)": 9.4},
      {"sequence": "TATTAACATATATAAAGTACATTAAACAACATTGTA [XGTACX_site7667]", "gcPBM binding intensity (ln)": 9.33},
      {"sequence": "AATAAATATAGATTCACACACAAACATATATAAATA [CACACA_site7814]", "gcPBM binding intensity (ln)": 9.8},
      {"sequence": "AAAAAAAAAATATATATATATATATATATATAATTT [GTGCAC_negctrl_site32]", "gcPBM binding intensity (ln)": 8.93},
      {"sequence": "AAGAAAAAAATTTATACAAGAATTTTTTATTATTAA [TGCATGCA_negctrl_site587]", "gcPBM binding intensity (ln)": 8.9},
      {"sequence": "TAATTGTACGCCAATACACACAGAATTAGAATGTAG [CACACA_site102]", "gcPBM binding intensity (ln)": 9.48},
      {"sequence": "ATAAATAAATGGTGTTGTACTCTATTATATATATAT [XGTACX_site7835]", "gcPBM binding intensity (ln)": 9.54},
      {"sequence": "TGTTAATTAAAGGACTGTACACTAATAATTCTATAA [XGTACX_site5195]", "gcPBM binding intensity (ln)": 9.13},
      {"sequence": "TCATATGTTTCATGTTGTACATTGAAAGTTTGGCTA [XGTACX_site3202]", "gcPBM binding intensity (ln)": 9.05},
      {"sequence": "GTTCTAATATATTGCACACGTAAAAATATAGGTAAT [CACACA_site886]", "gcPBM binding intensity (ln)": 9.5},
      {"sequence": "AAATATGTACATATTATATATATATAATATATATTG [TGCATGCA_negctrl_site438]", "gcPBM binding intensity (ln)": 9.22},
      {"sequence": "ATATTTATCTTTTTATGTACATATGCCCCTTTTCTG [XGTACX_site673]", "gcPBM binding intensity (ln)": 9.4},
      {"sequence": "GAGTTATTTCTTATTTAAGCATTCTACATATATATA [CACACA_negctrl_site239]", "gcPBM binding intensity (ln)": 9.46},
      {"sequence": "AAGAAAATTAAATTAACACACATAAATATATATATA [CACACA_site1664]", "gcPBM binding intensity (ln)": 9.65},
      {"sequence": "ATTTTACATATTTGCACACATATATTTAAATACATA [CACACA_site4627]", "gcPBM binding intensity (ln)": 9.65},
      {"sequence": "GTCCTTATGGATGATAAATTATTTTAAATATTCTAT [XGTACX_negctrl_site200]", "gcPBM binding intensity (ln)": 9.01},
      {"sequence": "TCTTGGTTATTAAAAAAAAAAAAATATATTTTTCCT [TGCATGCA_negctrl_site445]", "gcPBM binding intensity (ln)": 8.88},
      {"sequence": "TTGCATATTTCTAATTGTACATTATTTTATTTTATA [XGTACX_site8451]", "gcPBM binding intensity (ln)": 9.45},
      {"sequence": "GGGAAAATAAATAAAGTGCAGATATTAAAAGTTGTA", "gcPBM binding intensity (ln)": 9.41},
      {"sequence": "AATAAAAAATATATGAGTACTAAATTGTTTTCTTAA [XGTACX_site8573]", "gcPBM binding intensity (ln)": 9.01},
      {"sequence": "CTCAACGATAGAGAAACATGCAAGTATAAGCAACTA [TGCATGCA_site771]", "gcPBM binding intensity (ln)": 9.5},
      {"sequence": "TTTTATTGTTGTTATACACACCATATAAAATATTTC [CACACA_site4983]", "gcPBM binding intensity (ln)": 9.32},
      {"sequence": "ATTCACTAAAAAATTGCATGCAATAAATTTTTTTTT [TGCATGCA_site962]", "gcPBM binding intensity (ln)": 8.91},
      {"sequence": "AATTGATTTATATATTGTACATATAAATTTATGTAT [XGTACX_site7785]", "gcPBM binding intensity (ln)": 9.27},
      {"sequence": "TTTATTTATTATTAAAGTACTAAATCATATTATTAT [XGTACX_site992]", "gcPBM binding intensity (ln)": 8.9},
      {"sequence": "TATTTATATATTATGTGTCCACATGTAAGCTATCTT [XGTACX_site3887]", "gcPBM binding intensity (ln)": 9.12},
      {"sequence": "CCACTAATAAATATTACACACATATATATATATATT [CACACA_site3128]", "gcPBM binding intensity (ln)": 9.57},
      {"sequence": "TTTTCTTTTTTCTGTTGTACTAAAAATAATTTTGTA [XGTACX_site5171]", "gcPBM binding intensity (ln)": 9.12},
      {"sequence": "TATACATTATCTTATGCATGCGCATCTGCATATAAA [TGCATGCA_site266]", "gcPBM binding intensity (ln)": 9.05},
      {"sequence": "AGTATAAATAAATCATAAACATATATATATATATAT [GTGCAC_negctrl_site356]", "gcPBM binding intensity (ln)": 9.2},
      {"sequence": "ATATATACATATAACACACACATATATATATATATA [CACACA_site2575]", "gcPBM binding intensity (ln)": 9.56},
      {"sequence": "CTCATCCTTACATACACACACATATATATATATATA [CACACA_site103]", "gcPBM binding intensity (ln)": 9.82},
      {"sequence": "ATATTTAAATCGAAGGTGCGTATTTCCTTTTTTTTT [GTGCAC_site9632]", "gcPBM binding intensity (ln)": 9.4},
      {"sequence": "ATTCATTTCTATTTTACACACAATAAGTAACTTAAT [CACACA_site2850]", "gcPBM binding intensity (ln)": 9.72}
    ]}
  ]
}
